The values below come from PubChem BioAssay AID1745853 (National Center for Advancing Translational Sciences (NCATS), 2022).

Holding throughout (assay): Primary Screen for Target Class Profiling of Small Molecule Inhibitors of Methyltransferases
The target of assay [1] is Glycine N-methyltransferase (Homo sapiens) (UniProt Q14749). The settings on record: purified enzyme, MTase-Glo SAH luminescence; measured here: GNMT inhibition; at 40 µM; stronger effect = lower value. The procedure, abridged: (§1)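 Each enzyme was reacted with SAM and its substrate, with compounds tested once at 40 uM; SAH formed was read by MTase-Glo luminescence.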
Assay [2] addresses Guanidinoacetate N-methyltransferase (Homo sapiens) (UniProt Q14353). Particulars: purified enzyme, MTase-Glo SAH luminescence; measured here: GAMT inhibition; at 40 µM; stronger effect = lower value. The procedure, abridged: as §1
Assay [3] deals with Histamine N-methyltransferase (Homo sapiens) (UniProt P50135). The settings on record: purified enzyme, MTase-Glo SAH luminescence; measured here: HNMT inhibition; at 40 µM; stronger effect = lower value. The procedure, abridged:
as §1

Assay [4] deals with Nicotinamide N-methyltransferase (Homo sapiens) (UniProt P40261). The settings on record: purified enzyme, MTase-Glo SAH luminescence; measured here: NNMT inhibition; at 40 µM; stronger effect = lower value. The procedure, abridged:
as §1

Assay [5] deals with Phenylethanolamine N-methyltransferase (Homo sapiens) (UniProt P11086). Particulars: purified enzyme, MTase-Glo SAH luminescence; measured here: PNMT inhibition; at 40 µM; stronger effect = lower value. In outline:
as §1

This is one part of the list. Shown are side measurements of this screen, not its main read-out; they come without a call.
% is set by controls: 0 for no effect and ±100 for the full control effect.

For the compound `C/C(=C/CO)CC[C@@H]1[C@@]2(C)CCC[C@](C)(C(=O)O)C2CC[C@@]1(C)O` (stereo partly drawn), the activity change, negative = inhibition in assay [1] was 6.21%; in assay [2] it was 5.85%; in assay [3] it was 10.2%; in assay [4] it was -6.2%; in assay [5] it was 2.83%.

As to `CCCn1c(=O)c2ccc(C(=O)NC3CCCC3)cc2n2c(=O)n(Cc3c(F)cccc3Cl)nc12`, the activity change, negative = inhibition was 0.016% in assay [1]; 3.17% in assay [2]; -0.394% in assay [3]; -4.65% in assay [4]; -7.68% in assay [5].

As to `Cc1ccc(Cl)cc1N1C(=O)c2cc3occc3n2CC1(C)C(=O)NC1CCCCCCC1` (stereo not drawn), the activity change, negative = inhibition in assay [1] is -4.47%; in assay [2], 3.21%; in assay [3], -6.11%; in assay [4] it was -5.35%; in assay [5], -4.03%.

`CCOC(=O)c1cc(C#N)c(N2CCC(C(=O)NS(=O)(=O)Cc3ccccc3)CC2)nc1C`: the activity change, negative = inhibition in assay [1] is -2.12%; in assay [2], -4.77%; in assay [3], 10.7%; in assay [4], -12.9%; in assay [5], 1.06%.

On to `COC1(c2ccccc2)CCN(C(=O)C2CCCN(C(=O)N(C)C)C2)CC1` (stereo not drawn), for which the activity change, negative = inhibition in assay [1] is -4.02%; in assay [2], -10.3%; in assay [3], 0.195%; in assay [4] it was -7.82%; in assay [5], -3.66%.

Take `CCCn1c(=O)c2cc(F)ccc2n2c(SCC(=O)Nc3ccc4c(c3)OCO4)nnc12`: the activity change, negative = inhibition in assay [1] is -4.21%; in assay [2] it was 0%; in assay [3], 9.87%; in assay [4], -0.565%; in assay [5], 2.8%.

For the compound `C=CCc1ccccc1OCCN(C)Cc1cc2ccc(F)cc2[nH]c1=O`, the activity change, negative = inhibition in assay [1] was -8.25%; in assay [2] it was 0.293%; in assay [3], -7.59%; in assay [4], -12.9%; in assay [5] it was -5.87%.

For `COC(=O)c1ncn2c1C(=O)N(c1cccc(OC)c1)C(C)(C(=O)NCc1ccccc1OC)C2` (stereo not drawn), the activity change, negative = inhibition in assay [1] worked out at 1.83%; in assay [2], 0.77%; in assay [3] it was 1.05%; in assay [4] it was 2.81%; in assay [5], 3.2%.

For the compound `CCCn1c(=O)c2cc(F)ccc2n2c(SCC(N)=O)nnc12`, the activity change, negative = inhibition in assay [1] is -1.35%; in assay [2], 0%; in assay [3], 10.6%; in assay [4], 2.7%; in assay [5], 2.61%.

For the compound `O=C(O)c1cccnc1CN1CCCC(c2nc(-c3ccccc3)no2)C1` (stereo not drawn), the activity change, negative = inhibition in assay [1] was -7.26%; in assay [2], -5.67%; in assay [3], -2.73%; in assay [4] it was -7.77%; in assay [5] it was 10.1%.

In the case of `O=C(CCc1nnc2n(Cc3ccccc3)c(=O)c3ccccc3n12)NC1CCN(Cc2ccccc2)CC1`, the activity change, negative = inhibition is -5.72% in assay [1]; 2.93% in assay [2]; -19.1% in assay [3]; -4.98% in assay [4]; -2.02% in assay [5].

Turning to `CCCCNC(=O)C(C)n1ccc2cc(S(=O)(=O)N3CCCC3)ccc21` (stereo not drawn), the activity change, negative = inhibition was -0.341% in assay [1]; 3.34% in assay [2]; -3.42% in assay [3]; 1.72% in assay [4]; -1.01% in assay [5].

With `CN1Cc2ncnc(N3CCC(c4ccccc4)CC3)c2CN(c2ccccc2)C1=O`, the activity change, negative = inhibition is -10% in assay [1]; -6.55% in assay [2]; -5.03% in assay [3]; -18.1% in assay [4]; -9.11% in assay [5].

In the case of `C[S+](=O)([O-])N1CC2(CCCN2CC2CC2)Cc2ccccc21` (stereo not drawn), the activity change, negative = inhibition was -6.75% in assay [1]; -11.7% in assay [2]; -11.7% in assay [3]; -11.1% in assay [4]; -8.81% in assay [5].

In the case of `CCC(=C(c1ccc(OCCN2CCCC2)cc1)c1ccc(OCCN2CCCC2)cc1)c1ccccc1`, the activity change, negative = inhibition in assay [1] was -2.51%; in assay [2], -0.972%; in assay [3], -87.4%; in assay [4] it was -15.2%; in assay [5], -1.33%.

Consider `C#CCN(C)Cc1nc(C2(O)CCN(C(=O)c3ccccc3F)CC2)cs1`, for which the activity change, negative = inhibition in assay [1] is -2.34%; in assay [2], -0.955%; in assay [3] it was 1.37%; in assay [4], -4.62%; in assay [5], -3.09%.

Take `COCCOCc1nc(C2CCCCN2C(=O)c2ccncc2)no1` (stereo not drawn): the activity change, negative = inhibition in assay [1] is -2.46%; in assay [2], -2.64%; in assay [3], -0.378%; in assay [4], -7.02%; in assay [5], -3.1%.

For `COc1cc(N2CCOCC2)ccc1Nc1ncc(Cl)c(Nc2ccccc2NS(C)(=O)=O)n1`, the activity change, negative = inhibition in assay [1] was -43.6%; in assay [2] it was -0.133%; in assay [3] it was 4.26%; in assay [4], -16.3%; in assay [5], -23.7%.

For `Fc1ccccc1CN1CCC[C@H]1c1nc(-c2ccnc(N3CCOCC3)c2)no1`, the activity change, negative = inhibition in assay [1] was -1.99%; in assay [2], 0.641%; in assay [3], -1.02%; in assay [4] it was -1.72%; in assay [5] it was 0.864%.

Turning to `Clc1ccc(CNc2nc3c(-c4ccccc4)nnn3c3ccccc23)cc1`, the activity change, negative = inhibition in assay [1] was 0.436%; in assay [2] it was 0%; in assay [3] it was 5.28%; in assay [4] it was 4.25%; in assay [5] it was -1.25%.

As to `O=c1c2cccnc2n(-c2cccc([N+](=O)[O-])c2)c(=O)n1Cc1ccncc1`, the activity change, negative = inhibition in assay [1] was 2.51%; in assay [2], 7.54%; in assay [3], 12%; in assay [4], -11.4%; in assay [5] it was 5.92%.

As for `O=C1NCC2(CCCN(C(=O)c3cn[nH]c3-n3cnnn3)C2)O1` (stereo not drawn), the activity change, negative = inhibition in assay [1] was -3.99%; in assay [2], -6.98%; in assay [3], -2.62%; in assay [4], -9.51%; in assay [5], -6.37%.

On to `O=C(c1n[nH]c2ccccc12)N1CCCC1c1nc(CCOCC2CCOCC2)no1` (stereo not drawn), for which the activity change, negative = inhibition in assay [1] is -3.77%; in assay [2], -7.82%; in assay [3], -1.18%; in assay [4], -9.73%; in assay [5] it was -3.97%.

Turning to `CN(C)C(=O)Nc1cccc(-c2ccc(N(C)C)cc2)c1`, the activity change, negative = inhibition was -2.32% in assay [1]; 1.49% in assay [2]; 3.99% in assay [3]; -13.5% in assay [4]; 1.63% in assay [5].

Turning to `O=C1NCCOCCCN(C(=O)CC2CCCC2)[C@H]2CCC[C@@H]12`, the activity change, negative = inhibition was -1.41% in assay [1]; 3.08% in assay [2]; 1.42% in assay [3]; -6.54% in assay [4]; -16.6% in assay [5].

Take `CC(=O)Oc1ccc(C2Nc3ccc4ccccc4c3C3C=CCC32)c(OC(C)=O)c1` (stereo not drawn): the activity change, negative = inhibition was -11.1% in assay [1]; 0% in assay [2]; -13.2% in assay [3]; -19.1% in assay [4]; -17.4% in assay [5].

Take `CCCCN1C(=O)c2ccc(-c3ccccc3)n2CC1(C)C(=O)NC1CCC(C)CC1` (stereo not drawn): the activity change, negative = inhibition in assay [1] came out at 7.04%; in assay [2] it was 1.7%; in assay [3] it was 5.53%; in assay [4] it was 4.06%; in assay [5], 4.61%.

Regarding `Cc1cc2[nH]c(=O)[nH]c2cc1S(=O)(=O)N1CCN(c2ccccc2F)CC1`, the activity change, negative = inhibition was 15.7% in assay [1]; 2% in assay [2]; 11% in assay [3]; 2.46% in assay [4]; 6.08% in assay [5].

Take `C=CC(C)(/C=C/c1ccc(O)cc1)CCC=C(C)C` (stereo not drawn): the activity change, negative = inhibition in assay [2] is 3.21%; in assay [4] it was -14%; in assay [5], 2.94%.

As for `O=C1CCS(=O)(=O)N1c1ccc(S(=O)(=O)NCCN2CCOCC2)cc1`, the activity change, negative = inhibition is 3.23% in assay [1]; -6.93% in assay [2]; 4.07% in assay [3]; 6.64% in assay [4]; -1.89% in assay [5].

For the compound `CC(C)CC(=O)NC[C@@H]1C[C@H](F)CN1C(=O)CCCc1cccs1`, the activity change, negative = inhibition is -2.71% in assay [1]; -8.88% in assay [2]; -2.29% in assay [3]; -15.3% in assay [4]; 10.1% in assay [5].
